# Laboratory results from paper PMC4336329 (PLoS ONE, 2015).
# The campaign covered roughly 310,000 compounds. About 2,200 (0.71%) showed an effect of 50% or more. The effect is printed as a negative number. Some of the results follow.
# Molecular target: human ether-à-go-go-related gene (hERG) potassium channel (human, UniProt Q12809)
# Assay: primary screen, population patch clamp on CHO cells stably expressing hERG
# Sequence of human ether-à-go-go-related gene (hERG) potassium channel (Q12809 whole entry, looked up): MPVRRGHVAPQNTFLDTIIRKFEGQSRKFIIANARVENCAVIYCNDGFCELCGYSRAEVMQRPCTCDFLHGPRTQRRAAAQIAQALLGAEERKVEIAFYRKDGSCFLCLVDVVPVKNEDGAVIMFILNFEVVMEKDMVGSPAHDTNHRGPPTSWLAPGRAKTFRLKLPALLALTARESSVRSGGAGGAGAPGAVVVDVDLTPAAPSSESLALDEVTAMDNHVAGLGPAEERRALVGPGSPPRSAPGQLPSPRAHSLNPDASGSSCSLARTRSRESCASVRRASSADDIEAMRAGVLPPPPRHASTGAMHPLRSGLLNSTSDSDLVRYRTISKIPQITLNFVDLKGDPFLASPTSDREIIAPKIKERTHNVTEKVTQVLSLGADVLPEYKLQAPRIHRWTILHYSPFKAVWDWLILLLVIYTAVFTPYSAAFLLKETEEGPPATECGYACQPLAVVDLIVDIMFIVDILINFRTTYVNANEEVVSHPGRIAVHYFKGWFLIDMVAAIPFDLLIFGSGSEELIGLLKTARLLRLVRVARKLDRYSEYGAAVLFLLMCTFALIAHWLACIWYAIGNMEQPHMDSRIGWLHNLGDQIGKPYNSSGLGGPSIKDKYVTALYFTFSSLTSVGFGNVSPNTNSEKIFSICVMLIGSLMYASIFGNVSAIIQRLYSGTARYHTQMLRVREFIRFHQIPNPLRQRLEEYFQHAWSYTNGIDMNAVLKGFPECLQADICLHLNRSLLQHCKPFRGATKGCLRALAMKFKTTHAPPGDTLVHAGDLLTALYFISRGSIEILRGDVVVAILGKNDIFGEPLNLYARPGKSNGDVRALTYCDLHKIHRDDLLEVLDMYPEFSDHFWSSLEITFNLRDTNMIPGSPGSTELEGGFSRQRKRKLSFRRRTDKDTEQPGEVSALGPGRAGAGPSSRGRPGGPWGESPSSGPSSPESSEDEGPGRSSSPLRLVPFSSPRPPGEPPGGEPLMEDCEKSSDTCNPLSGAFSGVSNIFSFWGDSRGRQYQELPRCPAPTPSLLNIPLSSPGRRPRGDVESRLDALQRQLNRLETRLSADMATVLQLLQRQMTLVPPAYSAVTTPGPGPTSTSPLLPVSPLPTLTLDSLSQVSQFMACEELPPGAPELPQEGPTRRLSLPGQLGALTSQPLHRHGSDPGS
row,Compound,"hERG current change (%, negative = inhibition) at 1uM [%]"
1,COC(=O)c1ccc(/C=C/C(=O)c2cccc(OC)c2)cc1,11.1
2,COc1ccc(N2CCN(Cc3nc4c(c(=O)n(C)c(=O)n4C)n3C(C)C(C)=O)CC2)cc1 (centres unmarked),-8.36
3,Cn1c(=O)c2c(nc(SCCN3CCOCC3)n2Cc2ccccc2Cl)n(C)c1=O,-8.97
4,COc1cc(CC(=O)Nc2ccccc2N2CCOCC2)cc(OC)c1OC,7.5
5,COc1ccc(CN(C(=O)c2ccc(C)cc2)c2cccc(N)c2)cc1,7.6
6,CC12CC3(C)CC(C)(C1)CC(C(=O)NC(=S)N1CCCC1)(C2)C3,14.4
7,Cc1ccc(S(=O)(=O)c2c(CO)c(-c3ccccc3)nn2C)cc1,-2.57
8,CCOc1ccc(CCNC(=O)Cc2nn[nH]n2)cc1OCC,10.1
9,CN(C(=O)COC(=O)c1ccc2ccccc2n1)C1CCS(=O)(=O)C1 (centres unmarked),14.7
10,C[C@H](NC(=O)C1(c2ccccc2)CCN(C(=O)OC(C)(C)C)CC1)C(=O)N[C@@H](C(=O)O)c1ccccc1,3.36
11,CSc1ccccc1NC(=O)Cc1ccccc1[N+](=O)[O-],13.1
12,CCOCCCNC(=O)c1cc(Cl)c(NC(=O)C2=C(C)OCCS2)cc1OC,5.85
13,Cc1ccc(S(=O)(=O)c2nc(C)oc2N2CCOCC2)cc1,10.3
14,CN1CCCN(Cc2cccc3ccccc23)CC1,15.4
15,CC(=O)c1c(C)[nH]c(C(=O)OCc2ccc(F)cc2Cl)c1C,10.6
16,Cc1cc2nc3n(c2cc1C)CC1CC(C(=O)NCCc2cccs2)N(C)C31 (centres unmarked),-21.2
17,COCC(=O)N1CCC(n2nnc3cc(C(F)(F)F)ccc32)CC1,1.88
18,COc1ccc(CNC(=O)c2ccc(C(C)(C)C)cc2)cc1,17.7
19,CC(C)(C)c1ccc(C(=O)Oc2ccccc2CCC(=O)O)cc1,15.7

row,Compound,"hERG current change (%, negative = inhibition) at 1uM [%]"
1,COc1cccc(NC(=O)Cn2cnc3c(oc4nc5c(cc43)CCCC5)c2=O)c1,5
2,COC(=O)c1ccccc1NC(=O)CN1CCCCCC1,16.5
3,Cc1ccc(Nc2cc(=O)[nH]c(=O)[nH]2)cc1Cl,5.1
4,COc1ccc(/C=c2/sc3n(c2=O)C(c2ccccc2OC)C2=C(N=3)c3ccccc3CC2)cc1O (centres unmarked),6.5
5,Cn1c(SCc2ccccc2)nnc1-c1c[nH]c2ccccc12,14.8
6,CCCN1CCN(C(=O)CCCNC(=O)c2ccc(Cl)cc2)CC1,4.33
7,Cc1c(C)c2ccc(OCC(=O)N3C[C@H]4C[C@@H](C3)c3cccc(=O)n3C4)cc2oc1=O,10.7
8,O=c1c(C/C=C/c2ccccc2)c(O)ccn1Cc1cccc(Cl)c1,10.4
9,COc1ccc(NC(=O)CCNS(=O)(=O)c2ccc3c(c2)c(=O)n(C)c(=O)n3C)cc1OC,16
10,Cc1cc(C)c2oc(C(=O)N(Cc3ccc(F)cc3)C3CCS(=O)(=O)C3)cc(=O)c2c1 (centres unmarked),9.61
11,CC1(C)CC(=O)C(CC2C(=O)CC(C)(C)CC2=O)C(=O)C1,12.1
12,COc1cc(NC(=O)C/C(C)=N/NC(=O)C(=O)NC2CCCCC2)c(OC)cc1Cl,-66.8
13,CCc1c(C(=O)Nc2ccncc2)csc1C,-1.35
14,CN(Cc1ccccc1)C(=O)C1CCCN(Cc2cccc(Cl)c2)C1.O=C(O)C(=O)O (centres unmarked),11.7
15,O=c1cc(-c2ccc([N+](=O)[O-])cc2)nc2cc(-c3ccc(Cl)cc3)[nH]n12,14.4
16,C=CCCO[C@@H]1O[C@@H](C)[C@H](O)C[C@H]1O,12.5
17,Cc1onc(-c2c(Cl)cccc2Cl)c1C(=O)c1c[nH]c(C(=O)NC2CC2)c1,14.9
18,CC(C)c1ccc(NC2CCCN(C(=O)CCN3CCOCC3)C2)cc1 (centres unmarked),16.8
19,CC(=O)Nc1nc(C)c(Oc2ccc(Cl)cc2Cl)c(=O)[nH]1,11.4

row,Compound,"hERG current change (%, negative = inhibition) at 1uM [%]"
1,COc1cc(CNCCN2CCOCC2)ccc1OCc1ccccc1Cl.Cl,-0.385
2,COc1ccc(CCN2C(=O)CSC2c2cccc([N+](=O)[O-])c2)cc1OC (centres unmarked),11.4
3,CCn1c(SCC(=O)NCc2cccs2)nnc1-c1cccs1,-6.66
4,COc1ccc(/C=C(\NC(=O)c2ccco2)C(=O)N2CCOCC2)cc1,12.3
5,NC(=O)C1(N2CCCCC2)CCN(C(=O)c2ccccc2)CC1,5.81
6,CCOc1ccccc1C(=O)Nc1ccccc1O,12.9
7,CCN(CC)c1ccc(/C=C2/C(=O)NC(=O)N(CC3CCCO3)C2=O)cc1 (centres unmarked),4.4
8,COC(=O)c1c(NC(=O)C(C)(C)C)sc2c1CCN(Cc1ccccc1)C2.Cl,-3.68
9,O=C(CSc1nncn1-c1ccccc1)Nc1cc(F)ccc1F,22.7
10,CC(C)(C)C(=O)NC(=S)Nc1ccc(C(F)(F)F)cc1,15.3
11,CCC(NS(=O)(=O)c1ccc2c(c1)Cc1cc(S(=O)(=O)NC(CC)C(=O)O)ccc1-2)C(=O)O (centres unmarked),17.7
12,C=CCn1c(NCc2ccccc2O)nc2ccccc21,13.5
13,Cc1sc2nc(CN3CCCC3)nc(N3CCN(S(=O)(=O)c4cccs4)CC3)c2c1C,-65.2
14,COc1ccc2cc(CN(CCO)C(=O)c3ccccc3F)c(=O)[nH]c2c1,8.12
15,CC(=O)c1cccc(Nc2cc(C)nc3c(C)cccc23)c1.Cl,-16.9
16,Cl.OCCCN1CCN(CCCOc2ccccc2-c2ccccc2)CC1,-57.7
17,COc1ccc(-c2nnc(NC(=O)c3ccccc3C)o2)cc1,12.2
18,COc1cccc(-c2nn(-c3ccc(C)cc3)cc2C(=O)N(C)CC(=O)Nc2cccc(F)c2)c1,5.25
